31 sequences from paper PMC12820563 can be followed below.

Some of the results follow. The list includes weakly bound sequences.

This experiment concerns the target T1, MBP-FoxP3dN (UniProt Q99JB6).
T1 sequence: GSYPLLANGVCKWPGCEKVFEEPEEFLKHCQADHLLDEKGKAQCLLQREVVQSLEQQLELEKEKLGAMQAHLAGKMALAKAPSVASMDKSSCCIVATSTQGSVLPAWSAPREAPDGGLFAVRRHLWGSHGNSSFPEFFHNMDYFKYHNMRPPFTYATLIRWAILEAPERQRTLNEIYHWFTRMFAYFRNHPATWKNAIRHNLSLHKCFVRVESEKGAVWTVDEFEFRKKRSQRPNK
Put plainly: PD-seq (MBP pull-down with sequencing). The note with it: 20 mM Tris-HCl pH 7.5, 100 mM NaCl, 1.5 mM MgCl2, 0.4 uM protein, 0.1 uM dsDNA library, 30 min, room temperature, amylose pull-down; high values mean tight binding; double strand, one strand shown.
For the sequence “GATGATTGTTCTCCCAGCTGATGAATTAAACCAATCGAGTAAACAAATTTTCCTAATCTTTCTGTTCAAGCGCCATCTAC”, the binding signal (RPM ratio (pull-down/input)) is 0.347.
For the sequence “GATGATTGTTCTCCCAGCTGATGAATTGCCCGCCTCGAGTAAACAAATTTTCCTAATCTTTCTGTTCAAGCGCCATCTAC”, the binding signal (RPM ratio (pull-down/input)) was 0.73.
Then “GATGATTGTTCTCCCAGCTGATGAATTATTATCCTCGAGTAAACAAATTTTCCTAATCTTTCTGTTCAAGCGCCATCTAC”, with 0.758.
With “GATGATTGTTCTCCCAGCTGATGAATTCCTTCCTTCGAGTAAACAAATTTTCCTAATCTTTCTGTTCAAGCGCCATCTAC”, the binding signal (RPM ratio (pull-down/input)) is 0.209.
The value for “GATGATTGTTCTCCCAGCTGATGAATTCTGGCTATCGAGTAAACAAATTTTCCTAATCTTTCTGTTCAAGCGCCATCTAC” was 0.529; that for “GATGATTGTTCTCCCAGCTGATGAATTCCCGCGGTCGAGTAAACAAATTTTCCTAATCTTTCTGTTCAAGCGCCATCTAC” was 0.227; that for “GATGATTGTTCTCCCAGCTGATGAATTGACTCATTCGAGTAAACAAATTTTCCTAATCTTTCTGTTCAAGCGCCATCTAC” was 0.462.
The value for “GATGATTGTTCTCCCAGCTGATGAATTGGTATTTTCGAGTAAACAAATTTTCCTAATCTTTCTGTTCAAGCGCCATCTAC” was 1.36.
The value for “GATGATTGTTCTCCCAGCTGATGAATTCTTAGGGTCGAGTAAACAAATTTTCCTAATCTTTCTGTTCAAGCGCCATCTAC” was 0.197.
On to “GATGATTGTTCTCCCAGCTGATGAATTGCGAATATCGAGTAAACAAATTTTCCTAATCTTTCTGTTCAAGCGCCATCTAC”, for which the binding signal (RPM ratio (pull-down/input)) was 0.927.
With “GATGATTGTTCTCCCAGCTGATGAATTACAAATCTCGAGTAAACAAATTTTCCTAATCTTTCTGTTCAAGCGCCATCTAC”, the binding signal (RPM ratio (pull-down/input)) amounted to 0.509.
With “GATGATTGTTCTCCCAGCTGATGAATTCGGGTAGTCGAGTAAACAAATTTTCCTAATCTTTCTGTTCAAGCGCCATCTAC”, the binding signal (RPM ratio (pull-down/input)) amounted to 0.543.
Then “GATGATTGTTCTCCCAGCTGATGAATTCATTAACTCGAGTAAACAAATTTTCCTAATCTTTCTGTTCAAGCGCCATCTAC”, with 0.317; and “GATGATTGTTCTCCCAGCTGATGAATTAAGCCCTTCGAGTAAACAAATTTTCCTAATCTTTCTGTTCAAGCGCCATCTAC”, with 0.868; and “GATGATTGTTCTCCCAGCTGATGAATTAAGTCGATCGAGTAAACAAATTTTCCTAATCTTTCTGTTCAAGCGCCATCTAC”, with 0.325.
The value for “GATGATTGTTCTCCCAGCTGATGAATTCTCAAAGTCGAGTAAACAAATTTTCCTAATCTTTCTGTTCAAGCGCCATCTAC” was 0.191.
As for “GATGATTGTTCTCCCAGCTGATGAATTTACCACCTCGAGTAAACAAATTTTCCTAATCTTTCTGTTCAAGCGCCATCTAC”, the binding signal (RPM ratio (pull-down/input)) came out at 0.616.
Then “GATGATTGTTCTCCCAGCTGATGAATTCCTGCAATCGAGTAAACAAATTTTCCTAATCTTTCTGTTCAAGCGCCATCTAC”, with 2.22; and “GATGATTGTTCTCCCAGCTGATGAATTTCGGTGTTCGAGTAAACAAATTTTCCTAATCTTTCTGTTCAAGCGCCATCTAC”, with 0.955; and “GATGATTGTTCTCCCAGCTGATGAATTTGCTGCTTCGAGTAAACAAATTTTCCTAATCTTTCTGTTCAAGCGCCATCTAC”, with 3.05.
Then “GATGATTGTTCTCCCAGCTGATGAATTGAGCGCGTCGAGTAAACAAATTTTCCTAATCTTTCTGTTCAAGCGCCATCTAC”, with 1.08.
Then “GATGATTGTTCTCCCAGCTGATGAATTGCAAATCTCGAGTAAACAAATTTTCCTAATCTTTCTGTTCAAGCGCCATCTAC”, with 0.778; and “GATGATTGTTCTCCCAGCTGATGAATTGCGAGAATCGAGTAAACAAATTTTCCTAATCTTTCTGTTCAAGCGCCATCTAC”, with 0.446; and “GATGATTGTTCTCCCAGCTGATGAATTCAAGCGATCGAGTAAACAAATTTTCCTAATCTTTCTGTTCAAGCGCCATCTAC”, with 0.414.
Turning to “GATGATTGTTCTCCCAGCTGATGAATTCTTACAGTCGAGTAAACAAATTTTCCTAATCTTTCTGTTCAAGCGCCATCTAC”, the binding signal (RPM ratio (pull-down/input)) stood at 0.257.
Then “GATGATTGTTCTCCCAGCTGATGAATTTACCCAATCGAGTAAACAAATTTTCCTAATCTTTCTGTTCAAGCGCCATCTAC”, with 0.58; and “GATGATTGTTCTCCCAGCTGATGAATTGCGTGAGTCGAGTAAACAAATTTTCCTAATCTTTCTGTTCAAGCGCCATCTAC”, with 1.11.
Regarding “GATGATTGTTCTCCCAGCTGATGAATTAACAAGATCGAGTAAACAAATTTTCCTAATCTTTCTGTTCAAGCGCCATCTAC”, the binding signal (RPM ratio (pull-down/input)) is 0.24.
For “GATGATTGTTCTCCCAGCTGATGAATTGAGTGCCTCGAGTAAACAAATTTTCCTAATCTTTCTGTTCAAGCGCCATCTAC”, the binding signal (RPM ratio (pull-down/input)) is 0.963.
Then “GATGATTGTTCTCCCAGCTGATGAATTTGGTTTATCGAGTAAACAAATTTTCCTAATCTTTCTGTTCAAGCGCCATCTAC”, with 3.48; and “GATGATTGTTCTCCCAGCTGATGAATTTCGAGGTTCGAGTAAACAAATTTTCCTAATCTTTCTGTTCAAGCGCCATCTAC”, with 0.415.
